Results reported in the supplement of paper PMC9433436.
± gives the standard deviation of the averaged measurements. Whole data set: some 4,100 sequences, median “relative kcat/Km (krel) vs genomic leader AAAGAU” near 1.7, cut for the highest 2% near 6.5. Only a part is listed here, and it is no random draw.

Target: T1, E. coli RNase P holoenzyme (M1 P RNA + rnpA protein) (UniProt P0A7Y8)
T1 sequence: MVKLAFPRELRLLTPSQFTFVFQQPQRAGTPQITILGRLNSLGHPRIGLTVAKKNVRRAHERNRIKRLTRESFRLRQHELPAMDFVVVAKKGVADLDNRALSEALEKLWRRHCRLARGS
Test: relative kcat/Km (krel) vs genomic leader AAAGAU (relative (reference leader = 1)); higher = faster RNase P cleavage
Method: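 HTS-Kin: a pool of ptRNA-Met (21C construct) with all 4096 combinations of 5' leader nucleotides N(-6) to N(-1) was processed in vitro by E. coli RNase P (P RNA + rnpA/C5 protein) under multiple-turnover conditions at 37 C, pH 8, 17.5 mM MgCl2. Residual substrate was Illumina-sequenced at several fractions reacted, and relative kcat/Km (krel) was computed by internal competition kinetics, calibrated to the genomic leader (AAAGAU = 1). The listed hexamer is the varied N(-6)..N(-1) leader (DNA letters), and it sits between a fixed 5' stem-loop flank (GCAUGCACGAAAGUGCGUGCUAUGAA) and the mature tRNA-Met starting GGCUACGUAGCUCAGUUGG. Two technical replicates are averaged.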

[1] = fraction of substrate reacted: ~9-10% (9.79% repeat 1, 9.1% repeat 2)
[2] = fraction of substrate reacted: ~13-16% (15.68% repeat 1, 13.17% repeat 2)
[3] = fraction of substrate reacted: ~26-29% (28.66% repeat 1, 26.4% repeat 2)

| Sequence | relative kcat/Km [1] | relative kcat/Km [2] | relative kcat/Km [3] |
| --- | --- | --- | --- |
| CTCTTA | 2.98 ± 0.098 | 4.69 ± 1.5 | 6.21 ± 2.8 |
| ACATTC | 3.18 ± 1.5 | 3.46 ± 0.18 | 4.5 ± 1.5 |
| GATTGC | 2.61 ± 0.28 | 2.9 ± 1.2 | 4.46 ± 1.8 |
| CTGCAT | 2.54 ± 1.1 | 2.18 ± 0.43 | 2.83 ± 0.62 |
| GAAAAT | 1.09 ± 0.25 | 1.6 ± 0.3 | 2.25 ± 0.38 |
| AGCCTA | 2.05 ± 0.87 | 1.97 ± 0.57 | 2.57 ± 0.69 |
| TTGTTT | 1.63 ± 0.47 | 1.95 ± 0.49 | 2.75 ± 0.84 |
| CCGCCA | 1.81 ± 0.4 | 0.725 ± 0.38 | 1.26 ± 0.15 |
| TTACCT | 2.13 ± 1.3 | 2.18 ± 0.87 | 2.69 ± 1 |
| CTGCTC | 1.68 ± 0.38 | 1.26 ± 0.57 | 1.41 ± 0.074 |
| AGAGGC | 0.655 ± 0.65 | 1.34 ± 1.2 | 1.75 ± 1.7 |
| CCGTCC | 3.03 ± 1.2 | 3.13 ± 0.67 | 4.3 ± 0.5 |
| TGGTAG | – | – | 0.538 ± 0.38 |
| CGTAGC | 2.02 ± 0.4 | 2.9 ± 0.65 | 3.51 ± 1.3 |
| AATTGC | 1.75 ± 0.96 | 2.6914 ± 0.001 | 3.61 ± 0.89 |
| AATTCA | 1.83 ± 1.4 | 2.06 ± 0.38 | 2.07 ± 0.43 |
| CGCGTT | 1.3 ± 0.38 | 1.2 ± 0.61 | 1.57 ± 0.45 |
| GTTCTC | 1.75 ± 0.3 | 2.04 ± 0.04 | 2.54 ± 0.68 |
| GCCCGG | 0.406 ± 0.099 | – | 0.437 ± 0.31 |
| AGTCAA | 2.58 ± 0.11 | 4 ± 1.2 | 6.05 ± 2.9 |
| CTAAAG | 1.2 ± 0.55 | 0.877 ± 0.6 | 2.23 ± 0.5 |
| CTCTCG | 1.91 ± 1.5 | 1.68 ± 0.37 | 3.31 ± 0.37 |
| GGGACC | – | 0.806 ± 0.55 | 0.61 ± 0.38 |
| CATAAA | 2.33 ± 1.1 | 2.67 ± 0.12 | 4.07 ± 1.2 |
| CTTGTC | 0.953 ± 0.22 | 1.07 ± 0.24 | 1.38 ± 0.22 |
| TGTAGA | 2.99 ± 0.16 | 3.99 ± 0.68 | 6.3 ± 3.2 |

| Sequence | relative kcat/Km [1] | relative kcat/Km [2] | relative kcat/Km [3] |
| --- | --- | --- | --- |
| CTTCTA | 1.8 ± 1.3 | 1.63 ± 0.3 | 2.29 ± 0.47 |
| ACATTG | – | – | 1.48 ± 0.15 |
| ATGCCT | – | 1.06 ± 0.34 | 1.2 ± 0.037 |
| GAAACA | 2.06 ± 2 | 1.02 ± 0.084 | 1.42 ± 0.21 |
| TTAGGT | – | – | 1.28 ± 1.2 |
| AAAACT | 0.815 ± 0.37 | – | 0.972 ± 0.29 |
| GGTTAC | 0.591 ± 0.54 | 1.09 ± 0.22 | 2.13 ± 0.98 |
| GCGAAG | – | – | 1.25 ± 0.35 |
| TGCGGA | 0.285 ± 0.27 | 0.896 ± 0.51 | 1.14 ± 0.52 |
| TCGCCG | 1.88 ± 0.96 | 1.01 ± 0.4 | 1.82 ± 0.16 |
| AAATTA | 1.94 ± 0.73 | 1.69 ± 0.28 | 1.88 ± 0.53 |
| GCGCCT | 1.18 ± 0.57 | 0.841 ± 0.28 | 1.51 ± 0.049 |
| TTCTTC | 4.65 ± 1.6 | 5.94 ± 0.85 | 7.95 ± 3.2 |
| CCATGA | 1.89 ± 0.2 | 2.66 ± 0.45 | 4.06 ± 1.1 |
| TGATTG | – | 0.252 ± 0.054 | 0.752 ± 0.44 |
| CTGGAC | 1.34 ± 0.36 | 0.646 ± 0.38 | 0.764 ± 0.28 |
| ATTACC | 1.64 ± 0.48 | 1.65 ± 0.26 | 2.21 ± 0.71 |
| TAGAAT | 2.56 ± 0.91 | 3.58 ± 0.58 | 5.36 ± 2.3 |
| AGTAAA | 3.49 ± 0.93 | 3.7 ± 1.4 | 5.74 ± 2.5 |
| ACAAGA | 1.37 ± 0.28 | 1.26 ± 0.58 | 2.25 ± 0.74 |
| AGCCAA | 1.73 ± 1.4 | 2.54 ± 0.036 | 3.67 ± 0.53 |
| TGGACA | 0.751 ± 0.13 | 0.729 ± 0.41 | 0.947 ± 0.6 |
| TAGTCT | 2.45 ± 1.3 | 3.04 ± 0.54 | 4.35 ± 1.9 |
| GGGCCC | 0.895 ± 0.33 | 0.887 ± 0.77 | 0.973 ± 0.6 |
| CCTTCT | 2.65 ± 1.4 | 1.65 ± 0.92 | 2.41 ± 0.38 |
| CACCGG | – | – | 1.08 ± 0.15 |

| Sequence | relative kcat/Km [1] | relative kcat/Km [2] | relative kcat/Km [3] |
| --- | --- | --- | --- |
| CGGGGG | – | – | 0.675 ± 0.42 |
| TACGCC | 3.64 ± 0.043 | 5.35 ± 1.7 | 7.66 ± 3.3 |
| CGCTCT | 2.3 ± 0.091 | 2.53 ± 1.2 | 3.68 ± 1.4 |
| AGGTGC | – | 0.359 ± 0.23 | 0.616 ± 0.13 |
| CTTGTA | 1.4 ± 0.92 | 1.19 ± 0.34 | 1.42 ± 0.46 |
| AACACA | 3.35 ± 2.1 | 2.59 ± 0.34 | 3.94 ± 1.5 |
| GCTTAG | 1.03 ± 1 | 0.936 ± 0.032 | 2.32 ± 0.52 |
| CGGGAG | – | – | 0.28 ± 0.16 |
| GAGTGA | – | – | 1.86 ± 0.3 |
| GCTAAG | 0.961 ± 0.2 | 0.281 ± 0.25 | 0.836 ± 0.094 |
| GGCTTC | 0.513 ± 0.13 | 1.31 ± 0.14 | 1.7 ± 0.44 |
| GAAGTA | 0.209 ± 0.11 | 0.813 ± 0.19 | 1.18 ± 0.12 |
| GTACGA | – | 2.23 ± 1 | 4.06 ± 1.7 |
| CCTCCT | 2.08 ± 1.7 | 1.23 ± 0.17 | 1.29 ± 0.79 |
| ACTGAC | 1.48 ± 0.23 | 1.44 ± 0.18 | 2.47 ± 0.61 |
| GAGCTT | 1.95 ± 1.7 | 1.05 ± 0.34 | 1.75 ± 0.068 |
| GAATCT | 1.52 ± 0.53 | 2.22 ± 0.41 | 3.63 ± 2 |
| GGATGG | – | – | 0.8644 ± 0.0076 |
| CAATCT | 2.12 ± 0.91 | 2.04 ± 0.33 | 3.14 ± 0.86 |
| TTACAG | – | 1.44 ± 0.6 | 2.78 ± 0.57 |
| GTTGAT | 1.71 ± 0.32 | 1.46 ± 0.57 | 1.62 ± 0.72 |
| TTTCCG | – | 0.326 ± 0.23 | 1.29 ± 0.027 |
| CTACTG | – | – | 1.23 ± 0.06 |
| GAACGC | 1.81 ± 0.21 | 1.7 ± 1.2 | 2.77 ± 0.87 |
| CTGTAA | 2.15 ± 0.24 | 2.476 ± 0.012 | 3.91 ± 0.57 |
| TTGGAC | 1.33 ± 0.99 | 1.66 ± 1.2 | 1.5 ± 0.67 |

| Sequence | relative kcat/Km [1] | relative kcat/Km [2] | relative kcat/Km [3] |
| --- | --- | --- | --- |
| ATATCT | 2.7 ± 1.5 | 3.27 ± 0.033 | 3.92 ± 1.3 |
| ACTCAA | – | 2.05 ± 0.33 | 2.48 ± 0.61 |
| CCCCTC | 1.82 ± 0.31 | 2.16 ± 0.33 | 3.17 ± 1.1 |
| CAAGCA | – | 1.12 ± 0.73 | 1.47 ± 0.89 |
| CGCTGA | 1.89 ± 0.05 | 2.02 ± 1 | 3.55 ± 0.89 |
| CAAATT | 1.34 ± 0.051 | 1.56 ± 0.49 | 1.98 ± 0.52 |
| AGGACG | – | – | 0.724 ± 0.32 |
| GCATGT | – | – | 1.39 ± 1.1 |
| CTGCGG | – | 0.228 ± 0.042 | 0.674 ± 0.39 |
| CAGAAC | 3.1 ± 1.9 | 2.99 ± 0.042 | 4.01 ± 0.99 |
| CAGTAC | 3.68 ± 1.6 | 4.92 ± 0.95 | 6.37 ± 2.2 |
| AAGACT | 1.08 ± 0.93 | – | 1.63 ± 0.12 |
| GGAATA | 1.82 ± 0.55 | 1.8 ± 0.031 | 1.9 ± 0.54 |
| GCGCCA | 0.856 ± 0.1 | 0.801 ± 0.097 | 0.923 ± 0.28 |
| CCTTTT | 2.12 ± 0.32 | 2.5 ± 0.59 | 3.23 ± 0.89 |
| TGAAGA | 2.35 ± 0.51 | 2.79 ± 0.87 | 3.98 ± 1.3 |
| CCTCGT | 0.109 ± 0.037 | – | – |
| TGAGTA | 0.957 ± 0.65 | 0.718 ± 0.19 | 0.835 ± 0.5 |
| GGACTT | 0.557 ± 0.36 | 1.13 ± 0.16 | 1.72 ± 0.87 |
| TCAACA | 1.41 ± 1.4 | 0.943 ± 0.28 | 1.25 ± 0.15 |
| TCGTTG | – | 0.664 ± 0.27 | 1.32 ± 0.76 |
| TCGCGC | 1.38 ± 0.87 | 1.39 ± 0.44 | 2.19 ± 0.43 |
| AACCGC | 3.24 ± 0.86 | 3.02 ± 0.23 | 4.02 ± 0.71 |
| CACGTC | 2.22 ± 0.52 | 2.85 ± 0.29 | 3.87 ± 1.4 |
